Out of some 220,000 compounds screened, about 16,000 (7.3%) were called active. This list was built around the results that the source calls inconclusive (neither active nor inactive); the mix of calls is not that of the screen. Calls follow the shape of the dose curve; as a rule, active = well fitted inhibition curve with a large enough effect (not every such curve was filed as active); inconclusive = small, poorly fitted or top-dose-only effect, or another doubt; inactive = no such curve, though single readings can be large or run the other way. Potencies of inconclusive entries are left out as doubtful fits.
molecular target: Aldehyde dehydrogenase 1A1 (Homo sapiens) (UniProt P00352); test: qHTS Assay for Inhibitors of Aldehyde Dehydrogenase 1 (ALDH1A1); settings: Purified ALDH1A1, NADH fluorescence, propionaldehyde substrate; series mostly up to 75.3 µM; activity, negative = inhibition: at the top concentration;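 as to activity, negative = inhibition: plate controls were no enzyme wells and a reference inhibitor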
Chain of UniProt P00352 (P00352 whole entry, looked up): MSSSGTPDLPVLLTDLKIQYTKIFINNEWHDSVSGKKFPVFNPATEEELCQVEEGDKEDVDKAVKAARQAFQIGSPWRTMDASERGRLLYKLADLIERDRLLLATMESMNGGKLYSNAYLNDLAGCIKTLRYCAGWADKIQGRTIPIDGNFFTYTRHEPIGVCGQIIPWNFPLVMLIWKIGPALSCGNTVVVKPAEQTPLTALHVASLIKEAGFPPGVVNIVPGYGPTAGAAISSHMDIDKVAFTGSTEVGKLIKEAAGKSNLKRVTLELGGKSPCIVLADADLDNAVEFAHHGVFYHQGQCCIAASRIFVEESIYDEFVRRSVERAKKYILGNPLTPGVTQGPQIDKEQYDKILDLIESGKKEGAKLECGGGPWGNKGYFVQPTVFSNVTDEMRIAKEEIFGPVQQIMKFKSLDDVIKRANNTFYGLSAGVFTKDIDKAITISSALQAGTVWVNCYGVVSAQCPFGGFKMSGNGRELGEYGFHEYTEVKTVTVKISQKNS
Potency is read from the fitted curve at half-maximal effect; tags tell the direction and shape of the fitted curve.

Compound | Potency | activity, negative = inhibition
CCCCOc1ccc(C2C3CN(C(=O)OCC)CC=C3C(C#N)=C(N)C2(C#N)C#N)cc1OC (stereo not given) | inconclusive [inhibitor, single point] | –
Cc1nn(C)cc1CNC(=O)/C=C/c1cnn(C)c1 | – | inactive: 8.78%
COC(=O)c1cc(OC)c(OC)cc1NC(=O)CCc1ccc(C)o1 | inconclusive [inhibitor, single point] | –
O=C(Nc1cc(Cl)ccc1N1CCOCC1)c1cnccn1 | – | inactive: 10.9%
O=C(Nc1cccc(Cl)c1N1CCOCC1)c1ccc2c(c1)OCCO2 | inconclusive [inhibitor, partial curve] | –
CCCOc1ccc(C(=O)N2CCN(c3ccc(NC(=O)CC)cc3Cl)CC2)cc1 | inconclusive [inhibitor, partial curve] | –
N#Cc1c(NC(=O)CSc2nnc(-c3ccccc3)o2)sc2c1CCCC2 | inconclusive [inhibitor, single point] | –
Cc1cccc(C)c1Nc1oc(-c2ccccc2)nc1-c1ccccc1F | inconclusive [inhibitor, single point] | –
COc1ccc(C2/C(=C(\O)c3cc(C)ccc3C)C(=O)C(=O)N2CCN(C)C)cc1OC (stereo not given) | – | inactive: -9.57%
CCN(CCNCC(O)COCc1ccc(Cl)cc1)c1cccc(C)c1 (stereo not given) | inconclusive [inhibitor, single point] | –
Cc1cc(=O)oc2cc(OCC3CC(c4ccccc4)=NO3)ccc12 (stereo not given) | inconclusive [inhibitor, partial curve] | –
CC(NC(=S)NCCN1CCOCC1)C12CC3CC(CC(C3)C1)C2 (stereo not given) | inconclusive [inhibitor, single point] | –
Cc1ccc2c(c1C)NC(=O)C2(O)CC(=O)c1ccc2c(c1)OCO2 (stereo not given) | inconclusive [inhibitor, single point] | –
COc1ccc(NC(=O)Nc2ccccc2C(N)=O)cc1 | – | inactive: -0.46%
COc1ccc(NC(=O)CCN2C(=O)C3C4CCC(C4)C3C2=O)cc1 (stereo not given) | active: 12.6 µM | –
COc1ccc(CNc2ccnc(-c3cccc(C#N)c3)n2)c(OC)c1 | inconclusive [inhibitor, single point] | –
O=c1cc(CN2CCN(c3cccc(Cl)c3)CC2)c2cc(O)c(-c3ccccc3)cc2o1 | inconclusive [inhibitor, single point] | –
Cc1cc(NN)nc2ccc(Cl)cc12 | inconclusive [inhibitor, single point] | –
CC(C)(C)C1CCc2sc(C(=O)NNC(=O)CCl)cc2C1 (stereo not given) | active: 3.16 µM | –
CN(C)c1ccccc1C(=O)N1CCCC(C(=O)c2ccc3ccccc3c2)C1 (stereo not given) | inconclusive [inhibitor, single point] | –

From PubChem BioAssay AID1030 (National Center for Advancing Translational Sciences (NCATS), 2008)
